Assay results as given in publication PMC4336329 (PLoS ONE, 2015).
Among all 310,000 compounds or so, about 2,200 (0.71%) showed an effect of 50% or more. Effects have a minus sign here. Some of the results follow.

Each compound was assayed against human ether-à-go-go-related gene (hERG) potassium channel (human, UniProt Q12809) (assay: primary screen, population patch clamp on CHO cells stably expressing hERG).
Chain of human ether-à-go-go-related gene (hERG) potassium channel (Q12809 whole entry, looked up): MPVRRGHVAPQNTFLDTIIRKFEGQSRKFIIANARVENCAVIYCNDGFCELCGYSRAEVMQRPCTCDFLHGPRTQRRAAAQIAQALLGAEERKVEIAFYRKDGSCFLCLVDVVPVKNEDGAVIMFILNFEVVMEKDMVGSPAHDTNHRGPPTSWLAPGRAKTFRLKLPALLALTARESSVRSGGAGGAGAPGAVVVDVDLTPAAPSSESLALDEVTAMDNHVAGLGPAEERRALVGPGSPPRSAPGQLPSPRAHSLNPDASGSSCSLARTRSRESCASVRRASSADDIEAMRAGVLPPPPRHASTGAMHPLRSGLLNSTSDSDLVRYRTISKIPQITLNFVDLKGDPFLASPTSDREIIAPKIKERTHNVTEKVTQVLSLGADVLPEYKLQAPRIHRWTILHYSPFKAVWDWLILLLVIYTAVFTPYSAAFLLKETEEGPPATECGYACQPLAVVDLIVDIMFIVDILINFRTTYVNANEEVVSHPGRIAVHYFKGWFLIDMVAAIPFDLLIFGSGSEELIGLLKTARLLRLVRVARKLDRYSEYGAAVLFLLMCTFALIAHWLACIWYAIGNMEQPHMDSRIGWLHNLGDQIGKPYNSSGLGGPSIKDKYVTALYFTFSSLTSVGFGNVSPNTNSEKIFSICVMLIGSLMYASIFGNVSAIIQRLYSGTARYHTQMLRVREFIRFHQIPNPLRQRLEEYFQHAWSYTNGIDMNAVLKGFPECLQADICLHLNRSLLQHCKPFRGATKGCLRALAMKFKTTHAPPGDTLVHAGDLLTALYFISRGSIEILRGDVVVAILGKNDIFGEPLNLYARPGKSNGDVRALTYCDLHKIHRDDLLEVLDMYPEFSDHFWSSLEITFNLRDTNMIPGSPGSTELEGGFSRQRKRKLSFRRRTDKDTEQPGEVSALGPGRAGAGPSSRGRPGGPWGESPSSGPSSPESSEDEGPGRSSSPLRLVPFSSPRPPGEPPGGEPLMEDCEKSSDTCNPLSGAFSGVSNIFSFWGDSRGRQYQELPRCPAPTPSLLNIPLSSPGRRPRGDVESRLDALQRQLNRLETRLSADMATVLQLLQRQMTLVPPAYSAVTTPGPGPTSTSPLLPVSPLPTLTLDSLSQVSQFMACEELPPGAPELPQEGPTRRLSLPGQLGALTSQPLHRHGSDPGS

Row | SMILES | hERG current change (%, negative = inhibition) at 1uM [%]
1 | COc1cc(C=O)ccc1OCCCOc1ccccc1C(=O)O | 14.3
2 | CCOC(=O)C1=C(c2ccccc2)NC(=S)NC1c1ccc(Cl)c([N+](=O)[O-])c1 (stereo not drawn) | 4.66
3 | COc1cc2c(cc1OC)C(C)N(S(=O)(=O)c1ccc(C)cc1)CC2 (stereo not drawn) | 3.68
4 | CCc1nc(SCc2cccnc2)c2c(=O)n(C)c(=O)n(C)c2n1 | -4.84
5 | CC1CCN(c2nc3ccc(C(=O)NCCCN4CCCCC4C)cc3s2)CC1 (stereo not drawn) | -13.1
6 | COc1ccc(S(=O)(=O)NC(C)C)cc1C(=O)N1CCOCC1 | -4.16
7 | O=C(c1ccc(N2CCCCS2(=O)=O)cc1)N1CCN(c2ccccc2F)CC1 | 10.1
8 | COc1ccc(N2CCN(C(=O)Nc3ccccc3C)CC2)cc1 | 4.9
9 | C#CCNC(=O)C1=C[C@H](C)C[C@H](OCc2ccc(CO)cc2)O1 | 12.4
10 | CC(=O)Oc1ccc(NC(=O)Cc2ccccc2)cc1 | 16.2
11 | CCCCOC(=O)c1ccc(NC(=O)C(CCS(C)(=O)=O)NC(C)=O)cc1 (stereo not drawn) | -5.37
12 | COc1ccc(-c2cc(NCc3ccccn3)n3ncnc3n2)cc1 | -5.47
13 | CCOc1ccccc1CNn1cnnc1 | 6.93
14 | O=C(N/N=C/c1cc(Br)cs1)c1ccc2c(c1)OCCO2 | 9.48
15 | CNC(=O)c1c[nH]c2ccc(S(=O)(=O)Nc3ccccc3F)cc2c1=O | 14.7
16 | O=C(N=Nc1c(O)[nH]c2ccc([N+](=O)[O-])cc12)c1ccccc1[N+](=O)[O-] | 2.75
17 | O=C(CN(Cc1ccccc1Cl)C(=O)CN1C(=O)CSc2ccccc21)NC1CC1 | -30.7
18 | O=C(COc1ccc(/C=N/NC(=O)C(=O)N2CCCCCC2)cc1)Nc1ccccc1Cl | 7.53
19 | CC(O)[C@H]1CNC(=O)C(=O)N1CC(C)(C)C (stereo partly drawn) | 7.59
20 | CCn1c(/C(C#N)=N/O)nc2ccccc21 | 6.1
21 | CCCCOc1ccc(C(=O)Nc2ccc(S(=O)(=O)Nc3onc(C)c3C)cc2)cc1 | 16.3
22 | CCCc1c(O)nc(SCC(=O)NCCc2ccc(OC)c(OC)c2)[nH]c1=O | 7.06
23 | Cc1ccccc1CN1CCN(C(=O)c2cccc(F)c2)CC1 | 7.86

Row | SMILES | hERG current change (%, negative = inhibition) at 1uM [%]
24 | Cc1nnc(SCC(=O)Nc2nnc(-c3ccccc3)o2)s1 | 9.86
25 | CC(C)CC(NC(=O)c1ccccc1)C(=O)OCC(=O)Nc1ccc(S(N)(=O)=O)cc1 (stereo not drawn) | 5.8
26 | CC(=O)N(C)c1ccc(N=Cc2c(O)ccc3ccccc23)cc1 | 6.92
27 | C1=Cc2ccccc2Nc2ccccc21 | 15.9
28 | O=C(O)c1cc2cc(Oc3ccccc3)ccc2[nH]1 | 12.5
29 | C=CCNC(=S)Nc1ccc(Cl)cc1 | 11.3
30 | O=C(COC(=O)CNS(=O)(=O)c1ccc(Br)cc1Cl)NC1CCCC1 | 1.96
31 | CN(c1ccccc1C(=O)Nc1ccc(F)c(F)c1)S(C)(=O)=O | 7.39
32 | O=C(Nc1cccs1)Nc1c(F)cc(F)cc1Br | 15.6
33 | Cc1ccc(-c2c(C(=O)O)c(C(=O)O)c3n2CCC3)cc1 | 23.9
34 | Nc1ccccc1SCC(=O)N1CCc2ccccc21 | 3.11
35 | CCc1noc(C)c1C(=O)OCC(=O)N(C)c1c(N)n(Cc2ccccc2)c(=O)[nH]c1=O | -3.92
36 | Nc1nonc1-n1nnc(C(=O)N/N=C/c2cccc(O)c2)c1CN1CCCC1 | 11
37 | COc1cc(C(=O)NNC(=O)c2ccco2)cc(OC)c1OC | 14
38 | CCC(=O)c1cn(CC(=O)Nc2cccc(C)c2C)c2ccccc12 | 3.88
39 | Cc1ccnc(NC(=O)c2ccc3c(c2)OCO3)c1 | 0.644
40 | Nc1cc(=O)[nH]c(SCC(=O)Nc2ccc(Br)cc2)n1 | 10.9
41 | COc1ccc([N+](=O)[O-])cc1NC(=O)CCSCCc1ccccn1 | -1.8
42 | CC(C)COc1ccc(C(=O)NC(Cc2c[nH]c3ccccc23)C(=O)NN)cc1 (stereo not drawn) | 20.5
43 | CCN1CCN(C(=O)CCNC(=O)Cn2ccc3ccccc3c2=O)CC1 | 11.6
44 | Cc1cccnc1NC(=O)CN1C(=O)COc2ccc(Cl)cc21 | 11.4
45 | COc1ccccc1CNC(=O)CCNS(=O)(=O)c1cccc2nsnc12 | 6.11
